These are yes or no findings as the source states them, for the method shown. Binding seen in cells or lysates may run through a third protein. Some results given as binding are weak or reduced against the parent protein; the word gives no strength.

The chains behind the UniProt entries cited, without tags or fusion partners. Where a name states a change or a piece, a line headed by the entry shows the natural chain unless it says otherwise. Residues count along the entry.
UniProt Q09472: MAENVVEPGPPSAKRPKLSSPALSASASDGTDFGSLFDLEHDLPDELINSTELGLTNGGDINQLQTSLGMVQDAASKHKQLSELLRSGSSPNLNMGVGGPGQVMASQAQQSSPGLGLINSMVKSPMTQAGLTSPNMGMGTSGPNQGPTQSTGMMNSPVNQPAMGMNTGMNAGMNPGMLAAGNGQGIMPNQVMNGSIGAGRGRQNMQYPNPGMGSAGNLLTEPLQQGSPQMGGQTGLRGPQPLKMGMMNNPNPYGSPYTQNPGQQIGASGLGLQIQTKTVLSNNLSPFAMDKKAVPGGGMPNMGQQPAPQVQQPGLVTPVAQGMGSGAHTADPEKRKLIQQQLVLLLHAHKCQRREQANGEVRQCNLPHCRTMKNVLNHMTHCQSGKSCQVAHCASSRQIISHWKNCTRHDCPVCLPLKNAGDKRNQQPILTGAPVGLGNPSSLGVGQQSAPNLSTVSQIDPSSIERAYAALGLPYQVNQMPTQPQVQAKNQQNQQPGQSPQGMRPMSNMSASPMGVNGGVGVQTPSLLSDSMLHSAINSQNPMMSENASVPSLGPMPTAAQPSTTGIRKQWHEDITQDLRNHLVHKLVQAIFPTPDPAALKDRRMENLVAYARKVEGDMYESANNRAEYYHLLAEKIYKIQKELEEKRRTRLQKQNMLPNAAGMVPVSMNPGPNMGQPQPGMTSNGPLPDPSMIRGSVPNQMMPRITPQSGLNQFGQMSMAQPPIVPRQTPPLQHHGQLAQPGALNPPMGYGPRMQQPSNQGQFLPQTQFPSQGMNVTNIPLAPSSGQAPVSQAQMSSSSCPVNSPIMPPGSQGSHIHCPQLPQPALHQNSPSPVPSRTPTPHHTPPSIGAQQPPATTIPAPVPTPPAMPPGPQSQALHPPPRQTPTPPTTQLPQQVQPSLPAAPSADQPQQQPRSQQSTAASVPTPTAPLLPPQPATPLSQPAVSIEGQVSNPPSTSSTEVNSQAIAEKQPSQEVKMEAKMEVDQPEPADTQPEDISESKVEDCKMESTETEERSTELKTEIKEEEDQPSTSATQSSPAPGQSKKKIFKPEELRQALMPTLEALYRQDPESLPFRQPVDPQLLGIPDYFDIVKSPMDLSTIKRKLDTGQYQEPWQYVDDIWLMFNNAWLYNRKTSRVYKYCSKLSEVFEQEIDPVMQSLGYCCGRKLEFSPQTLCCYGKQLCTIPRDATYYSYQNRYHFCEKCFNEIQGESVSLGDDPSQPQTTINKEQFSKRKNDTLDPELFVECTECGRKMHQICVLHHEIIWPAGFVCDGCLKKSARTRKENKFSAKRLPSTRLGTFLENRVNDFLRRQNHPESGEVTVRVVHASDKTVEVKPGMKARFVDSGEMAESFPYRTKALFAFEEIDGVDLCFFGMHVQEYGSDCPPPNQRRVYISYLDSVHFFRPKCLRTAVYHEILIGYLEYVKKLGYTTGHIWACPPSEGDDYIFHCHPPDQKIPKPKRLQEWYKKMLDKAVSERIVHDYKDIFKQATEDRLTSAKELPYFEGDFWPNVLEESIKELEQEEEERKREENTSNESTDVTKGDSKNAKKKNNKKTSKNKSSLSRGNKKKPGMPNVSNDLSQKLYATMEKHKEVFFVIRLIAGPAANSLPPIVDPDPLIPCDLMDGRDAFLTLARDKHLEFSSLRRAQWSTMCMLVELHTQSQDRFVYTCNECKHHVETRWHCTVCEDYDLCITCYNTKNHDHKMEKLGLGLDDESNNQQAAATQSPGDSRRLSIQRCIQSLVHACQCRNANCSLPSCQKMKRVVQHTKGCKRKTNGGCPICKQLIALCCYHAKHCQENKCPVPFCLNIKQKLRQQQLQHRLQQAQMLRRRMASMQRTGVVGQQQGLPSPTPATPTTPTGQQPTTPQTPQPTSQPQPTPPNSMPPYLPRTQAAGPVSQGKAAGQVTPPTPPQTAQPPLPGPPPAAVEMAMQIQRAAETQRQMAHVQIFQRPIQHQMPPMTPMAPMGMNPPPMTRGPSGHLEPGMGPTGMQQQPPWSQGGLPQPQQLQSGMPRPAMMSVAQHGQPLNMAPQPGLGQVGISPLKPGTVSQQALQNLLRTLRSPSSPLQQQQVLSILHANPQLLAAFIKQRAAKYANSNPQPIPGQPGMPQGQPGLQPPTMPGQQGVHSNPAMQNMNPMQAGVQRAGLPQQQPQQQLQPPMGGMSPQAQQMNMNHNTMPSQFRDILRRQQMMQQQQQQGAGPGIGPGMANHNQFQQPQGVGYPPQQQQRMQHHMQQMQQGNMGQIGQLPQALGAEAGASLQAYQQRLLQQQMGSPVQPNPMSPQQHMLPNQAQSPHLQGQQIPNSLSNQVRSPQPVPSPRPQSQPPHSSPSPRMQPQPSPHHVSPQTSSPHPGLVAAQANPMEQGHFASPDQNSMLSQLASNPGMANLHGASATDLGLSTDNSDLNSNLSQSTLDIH
GST-C/H1 fusion protein (p300 328-424, construct no. 9): residues 328-424 of Q09472
GST-ΔC/H1-KIX fusion protein (p300 436-661, construct no. 10): residues 436-661 of Q09472
UniProt Q92831: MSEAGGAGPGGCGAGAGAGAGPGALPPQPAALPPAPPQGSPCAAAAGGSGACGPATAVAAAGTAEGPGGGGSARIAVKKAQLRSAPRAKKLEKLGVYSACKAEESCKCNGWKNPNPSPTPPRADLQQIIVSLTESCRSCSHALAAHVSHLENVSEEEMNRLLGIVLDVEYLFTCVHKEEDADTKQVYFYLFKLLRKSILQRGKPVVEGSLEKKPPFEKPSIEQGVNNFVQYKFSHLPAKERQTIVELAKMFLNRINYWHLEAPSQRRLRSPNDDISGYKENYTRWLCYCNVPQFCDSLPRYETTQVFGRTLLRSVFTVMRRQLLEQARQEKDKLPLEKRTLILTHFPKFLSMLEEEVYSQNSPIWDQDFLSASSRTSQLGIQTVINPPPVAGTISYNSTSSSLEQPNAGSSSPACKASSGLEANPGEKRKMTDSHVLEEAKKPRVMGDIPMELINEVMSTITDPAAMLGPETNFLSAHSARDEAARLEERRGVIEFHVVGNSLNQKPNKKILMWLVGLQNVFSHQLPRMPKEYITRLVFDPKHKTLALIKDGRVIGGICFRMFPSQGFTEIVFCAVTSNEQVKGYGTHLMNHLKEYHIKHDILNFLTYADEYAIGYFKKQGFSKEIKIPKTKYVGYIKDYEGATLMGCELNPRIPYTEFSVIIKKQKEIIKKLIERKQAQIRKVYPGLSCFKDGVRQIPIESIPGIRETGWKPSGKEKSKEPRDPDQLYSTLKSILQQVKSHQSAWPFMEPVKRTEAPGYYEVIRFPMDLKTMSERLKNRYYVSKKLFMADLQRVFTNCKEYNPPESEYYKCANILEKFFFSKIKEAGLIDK

Data on seven molecules can be found in paper PMC517496.

In experiment [1] the target is T1, Bel1/Tas trans-activator of primate foamy virus (PFV) (primate foamy virus (PFV)) (UniProt P14353).
T1 sequence: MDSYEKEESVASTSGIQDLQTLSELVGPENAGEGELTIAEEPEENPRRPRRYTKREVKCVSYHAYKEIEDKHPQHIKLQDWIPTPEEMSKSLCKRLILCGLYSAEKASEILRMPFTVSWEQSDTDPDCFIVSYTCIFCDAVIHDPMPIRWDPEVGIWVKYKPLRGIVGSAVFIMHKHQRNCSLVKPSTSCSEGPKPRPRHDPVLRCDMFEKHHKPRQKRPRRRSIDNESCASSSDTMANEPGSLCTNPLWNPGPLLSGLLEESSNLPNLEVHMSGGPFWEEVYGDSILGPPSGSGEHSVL
Kind of experiment: co-IP; 293T cells cotransfected with pbel1s and FLAG-tagged partner; lysis in 150 mM NaCl, 20 mM Tris-HCl pH 7.5, 1% Triton X-100; precipitated with rabbit anti-Bel1 antiserum and protein A-Sepharose, washed three times with lysis buffer; immunoblot with monoclonal anti-FLAG. On the technique in general: Immunoblotting shows a protein as a band on a membrane.

In experiment [2] the target is T1, Bel1/Tas trans-activator of primate foamy virus (PFV) (primate foamy virus (PFV)). The experiment can be described thus: co-IP; 293T cells cotransfected with SRC-1a and pbel1s; immunoprecipitations and Western blot analysis under different conditions; anti-Bel1 antiserum, immunoblot with antibody against SRC-1.
Experiment [3] has the same target. Kind of experiment: co-IP; 293T cells cotransfected with p300FL (10 or 20 ug) and pbel1s, labelled with [35S]-Met and -Cys; precleared lysates precipitated with anti-Bel1/Tas antibody; SDS-PAGE and autoradiography.
Experiment [4] concerns the target GST-C/H1 fusion protein (p300 328-424, construct no. 9) (human) (UniProt Q09472). The experiment can be described thus: pull-down; GST fusion bound to glutathione Sepharose 4B mixed with lysate of pbel1s-transfected 293T cells; 4 °C overnight in binding buffer, extensive washing; immunoblot with antibody against Bel1/Tas; only the target purified.
Experiment [5] concerns the target GST-ΔC/H1-KIX fusion protein (p300 436-661, construct no. 10) (human) (UniProt Q09472). The description is as above.

Take “FLAG-PCAF (p300/CBP-associated factor) (from UniProt Q92831 1-832)”: the binding result in experiment [1] is reported as “binds”.
In the case of “FLAG-SRC-1a (steroid receptor coactivator 1a) (from UniProt Q15788-1 1-1441)”, in experiment [2], the binding result is reported as “no binding”.
In the case of “FLAG-p300 construct no. 7, residues 1 through 347 of p300 (from UniProt Q09472 1-347) (domain or fragment)”, in experiment [1], the binding result is on record as “no binding”.
Same read-out and setting: for “FLAG-p300-C/H1-ΔKIX (construct no. 6), residues 1 to 424 of p300 (from UniProt Q09472 1-424) (domain or fragment)” the value was “binds”.
For the molecule “FLAG-p300FL (full-length p300, construct no. 1) (from UniProt Q09472 1-2414)”, the binding result in experiment [3] is recorded as “binds”.
Turning to “FLAG-p300ΔN-ΔC/H1-ΔKIX (construct no. 8), residues 1 to 196 of p300 (from UniProt Q09472 1-196) (domain or fragment)”, the binding entry in experiment [1] is on record as “no binding”.

B1: Bel1/Tas trans-activator of primate foamy virus (PFV) (protein, UniProt P14353 1-300)
chain: T1 sequence
For the molecule B1, the binding result in experiment [4] is “binds”; in experiment [5], “no binding”.
